The results in this text go back to publication PMC4098744, “Systematic family‐wide analysis of sodium bicarbonate cotransporter NBCn1/SLC4A7 interactions with PDZ scaffold proteins” (Physiological Reports, 2014).

The chains behind the UniProt entries cited, without tags or fusion partners. Residues count along the entry.
UniProt Q15599, residues 150-230: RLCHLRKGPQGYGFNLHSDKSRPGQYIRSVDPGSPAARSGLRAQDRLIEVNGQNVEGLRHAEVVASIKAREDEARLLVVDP
UniProt Q96RT1, residues 1321-1410: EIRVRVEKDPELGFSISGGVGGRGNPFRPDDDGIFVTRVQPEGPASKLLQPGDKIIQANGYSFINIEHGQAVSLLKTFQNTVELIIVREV

No constants are given. Whether binding was seen depends on the method and setting. For part of these data: Binding seen in cells or lysates may run through a third protein. Some binding calls cover weakened binding; strength is not graded here. Where a sequence is shown, tags or fusion partners need not be part of it.

Assay [1] has as its target T1, GST/Syn‐ΔPDZ (human) (UniProt Q9NY99).
T1 sequence: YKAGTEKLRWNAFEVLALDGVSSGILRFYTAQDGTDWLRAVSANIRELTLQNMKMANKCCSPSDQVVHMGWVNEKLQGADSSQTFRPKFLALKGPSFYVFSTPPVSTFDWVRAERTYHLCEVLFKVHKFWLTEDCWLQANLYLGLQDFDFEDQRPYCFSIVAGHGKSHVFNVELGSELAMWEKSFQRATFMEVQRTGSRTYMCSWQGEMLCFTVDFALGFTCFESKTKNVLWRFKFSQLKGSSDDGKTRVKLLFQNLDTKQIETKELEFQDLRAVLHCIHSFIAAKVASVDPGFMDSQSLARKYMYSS
Description: pull-down; GST/syntrophin γ2 constructs on Glutathione-Sepharose beads incubated with lysates of Xenopus oocytes expressing rat NBCn1, 4°C, 4 h, PBS with 0.5% Nonidet P-40; blot with NBCn1 antibody; only the target purified.

In assay [2] the target is T2, GST/Syn‐PDZ (human) (UniProt Q9NY99).
T2 sequence: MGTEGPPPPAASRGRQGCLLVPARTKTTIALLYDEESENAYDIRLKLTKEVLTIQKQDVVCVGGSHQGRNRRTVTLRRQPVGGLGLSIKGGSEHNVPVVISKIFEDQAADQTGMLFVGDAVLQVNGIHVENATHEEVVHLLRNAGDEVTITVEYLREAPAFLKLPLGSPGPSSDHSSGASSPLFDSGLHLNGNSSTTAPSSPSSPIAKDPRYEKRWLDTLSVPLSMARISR
The description is as above.

The target in assay [3] is T3, syntrophin γ2 (PDZ domain on the array) (UniProt Q9NY99).
T3 sequence: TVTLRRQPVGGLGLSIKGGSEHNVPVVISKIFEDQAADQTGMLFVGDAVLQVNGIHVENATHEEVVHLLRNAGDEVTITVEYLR
Description: peptide or protein array; PDZ filter overlay: 96 Class I PDZ domains spotted on a nylon membrane; overlaid with 100 nmol/L GST/NBCn1 (or GST only) in blot buffer (50 mmol/L NaCl, 2% dry milk, 0.1% Tween 20, 10 mmol/L HEPES; pH 7.4) for 1 h at room temperature; detected with HRP-conjugated anti-GST antibody; done three times; both purified.

The target of assay [4] is T4, PDZK1 (PDZ domain 1) (UniProt Q5T2W1).
T4 sequence: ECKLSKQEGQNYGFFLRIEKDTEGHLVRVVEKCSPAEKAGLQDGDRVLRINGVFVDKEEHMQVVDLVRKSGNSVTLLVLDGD
The description is as above.

Assay [5] addresses T5, syntrophin β2 (PDZ domain on the array) (UniProt Q13425).
T5 sequence: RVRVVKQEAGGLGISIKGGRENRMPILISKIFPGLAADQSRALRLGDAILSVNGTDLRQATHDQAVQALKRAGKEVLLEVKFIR
The description is as above.

In assay [6] the target is NHERF‐2 (PDZ domain 2) (UniProt Q15599). The description is as above.
For assay [7], the target named is ERBIN (PDZ domain on the array) (UniProt Q96RT1). Described as above.
Assay [8] has as its target T6, NHERF‐1 (PDZ domain 1) (UniProt O14745).
T6 sequence: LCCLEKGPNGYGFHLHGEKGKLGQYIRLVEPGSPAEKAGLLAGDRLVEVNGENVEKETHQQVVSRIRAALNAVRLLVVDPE
The assay is described as above.

Assay [9] deals with T7, syntrophin α1 (PDZ domain on the array) (UniProt Q13424).
T7 sequence: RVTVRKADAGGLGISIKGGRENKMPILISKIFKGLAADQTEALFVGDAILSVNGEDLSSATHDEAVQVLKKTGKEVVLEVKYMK
The description is as above.

The target in assay [10] is T8, MUPP1 (PDZ domain 7) (UniProt O75970).
T8 sequence: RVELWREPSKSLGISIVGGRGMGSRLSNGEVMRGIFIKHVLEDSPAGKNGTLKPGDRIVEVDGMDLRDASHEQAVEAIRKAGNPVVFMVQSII
The description is as above.

Assay [11] has as its target T9, MALS‐1 (PDZ domain on the array) (UniProt O14910).
T9 sequence: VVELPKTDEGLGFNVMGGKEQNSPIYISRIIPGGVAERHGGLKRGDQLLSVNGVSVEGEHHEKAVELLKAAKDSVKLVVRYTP
The description is as above.

Assay [12] has as its target T10, GST/NBCn1 fusion protein containing the C‐terminal 131 amino acids of rat NBCn1 (rat) (UniProt Q9R1N3).
T10 sequence: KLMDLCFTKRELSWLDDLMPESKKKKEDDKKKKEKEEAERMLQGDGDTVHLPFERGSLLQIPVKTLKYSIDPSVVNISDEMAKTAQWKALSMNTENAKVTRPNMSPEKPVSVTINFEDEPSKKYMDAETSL
Description: pull-down; GST/NBCn1 (C-terminal 131 amino acids) on Glutathione-Sepharose beads incubated with membrane and cytosolic lysates of Xenopus oocytes expressing syntrophin γ2, 4°C, 4 h, PBS with 0.5% Nonidet P-40; blot with syntrophin γ2 antibody; only the target purified.

B1: rat NBCn1 expressed in Xenopus oocytes (protein, UniProt Q9R1N3-2 1-1254)
chain: MEADGAGEQMRPLLTRGPDEEAVVDLGKTSSTVNTKFEKEELESHRAVYVGVHVPFSKESRRRHRHRGHKHHHRRRKDKDSDKEDGRESPSYDTPSQRVQFILGTEDDDEEHIPHDLFTEMDELCYRDGEEYEWKETARWLKFEEDVEDGGDRWSKPYVATLSLHSLFELRSCILNGTVMLDMRASTLDEIADMVLDNMIASGQLDDSIRENVREALLKRHHHQNEKRFTSRIPLVRSFADIGKKHSDPHLLERNGEGLSASRHSLRTGLSASNLSLRGESPLSLLLSHLLPSSRAGTPAGSRCTTPVPTPQNSPPSSPSLSRLTSRSSQQTQPQAPEVLVSPDRDDIPRVVIHPPEEDIEALKGQEQKNEENTDFTPGILASPQSAPGNLDSSKSGEVKGNGSGGSRENSTVDFSKVDMNFMRKIPTGAEASNVLVGEVDFLERPIIAFVRLAPAVLLSGLTEVPVPTRFLFLLLGPAGKAPQYHEIGRSIATLMTDEIFHDVAYKAKDRNDLLSGIDEFLDQVTVLPPGEWDPSIRIEPPKSVPSQEKRKIPAFPNGSAPVSADPPKEADHHAGPELQRTGRLFGGLILDIKRKAPFFLSDFKDALSLQCLASILFLYCACMSPVITFGGLLGEATEGRISAIESLFGASLTGIAYSLFAGQPLTILGSTGPVLVFEKILFKFCRDYHLSYLSLRTSIGLWTSFLCIVLVATDASSLVCYITRFTEEAFAALICIIFIYEALEKLFHLGEIYAFNMHNNLDALTSYTCVCAEPSNPSNETVELWERKNVTAASISWANLTVSECKTFHGMFVGSACGPHGPYVPDVLFWCVVLFFTTFFLSSFLKQFKTKRYFPTKVRSTISDFAVFLTIVIMVAIDYLVGIPSPKLHVPEKFEPTDPSRGWIISPLGDNPWWTLLIAAVPALLCTILIFMDQQITAVIINRKEHKLKKGAGYHLDLLMVAVMLGVCSIMGLPWFVAATVLSISHVNSLKVESECSAPGEQPKFLGIREQRVTGLMIFILMGLSVFMTSVLKFIPMPVLYGVFLYMGVSSLKGIQFFDRIKLFGMPAKHQPDLIYLRYVPLWKVHVFTVVQLTCLVLLWVIKASAAAVVFPMMVLALVFVRKLMDLCFTKRELSWLDDLMPESKKKKEDDKKKKEKEEAERMLQGDGDTVHLPFERGSLLQIPVKTLKYSIDPSVVNISDEMAKTAQWKALSMNTENAKVTRPNMSPEKPVSVTINFEDEPSKKYMDAETSL
On to B1, for which the binding result was “no binding” in [1] and “binds” in assay [2].

B2: GST/NBCn1 fusion protein containing the C‐terminal 26 amino acids of rat NBCn1 (domain or fragment, UniProt Q9R1N3-2 1229-1254, looked up)
chain: PEKPVSVTINFEDEPSKKYMDAETSL
notes: NBCn1 (SLC4A7), rat, the C-terminal 26 amino acids; also called C‐terminal domain of NBCn1 fused to GST; source: prepared as described previously (Lee et al. 2012)
As to B2, the binding entry in assay [3], in [4], in assay [5], in [6], in [7] and in assay [8] was “binds” each time. Further, the binding entry in assay [9] is on record as “binds”; in [10] it was “binds”; in assay [11], “binds weakly”.

B3: syntrophin γ2 expressed in Xenopus oocytes (protein, UniProt Q9NY99 1-539)
chain: MGTEGPPPPAASRGRQGCLLVPARTKTTIALLYDEESENAYDIRLKLTKEVLTIQKQDVVCVGGSHQGRNRRTVTLRRQPVGGLGLSIKGGSEHNVPVVISKIFEDQAADQTGMLFVGDAVLQVNGIHVENATHEEVVHLLRNAGDEVTITVEYLREAPAFLKLPLGSPGPSSDHSSGASSPLFDSGLHLNGNSSTTAPSSPSSPIAKDPRYEKRWLDTLSVPLSMARISRYKAGTEKLRWNAFEVLALDGVSSGILRFYTAQDGTDWLRAVSANIRELTLQNMKMANKCCSPSDQVVHMGWVNEKLQGADSSQTFRPKFLALKGPSFYVFSTPPVSTFDWVRAERTYHLCEVLFKVHKFWLTEDCWLQANLYLGLQDFDFEDQRPYCFSIVAGHGKSHVFNVELGSELAMWEKSFQRATFMEVQRTGSRTYMCSWQGEMLCFTVDFALGFTCFESKTKNVLWRFKFSQLKGSSDDGKTRVKLLFQNLDTKQIETKELEFQDLRAVLHCIHSFIAAKVASVDPGFMDSQSLARKYMYSS
In the case of B3, the binding entry in assay [12] is “binds”.
